Measurements from the RNAGym collection of RNA variant scans (doi:10.7554/elife.90254).
Read counts are not given, so values of variants with three or more changes are uncertain.

B1: LINE1-mini (parent)
chain: GGCAGAGCUCAACACAGCGUGGCAAAGUGGCUGUGGCUAGACUGCC

Variants of: B1
Test: self-cleavage, relative activity (ratio to wild type); higher = more cleavage; in vitro, sequencing; the parent is a self-cleaving ribozyme

Which self-cleavage does the source give for GGCAGAGCUCAAUACAGGGUGGUAACGUGGCUGUUGCUAGACUGCC [C13U C18G C23U A26C G35U] here?
The self-cleavage was 0.06.

For GGCAGAGCUCAACACAGCGUGGCAAAGUGGUUGUGUCUAAACUGCC [C31U G36U G40A], which self-cleavage is on record?
Its self-cleavage is 0.09.

For UGCAGAGGUAAACACAGCGUGGCAAAGAGGCUGUGGCUAGACUGCC [G1U C8G C10A U28A], which self-cleavage is on record?
Its self-cleavage is 0.01.

Which self-cleavage does the source give for GGCAGAGCUCAACACAGCGUGGCAAAGUUGCGCUGGCUAGACUGCC [G29U U32G G33C] here?
The self-cleavage was 0.11.

With GUCAGAGCUAAACACAGCGUGGCAAAGCGGCUGAGGCGAGACUGCC [G2U C10A U28C U34A U38G] as the variant, how does the self-cleavage read?
Its self-cleavage is 0.

For GGCAGAACUCAACACAGCGUGGCGGAGUAGCUUUGGCUAGACUGCC [G7A A24G A25G G29A G33U], which self-cleavage is on record?
The self-cleavage was 0.02.

Which self-cleavage does the source give for GACAGAACUCAACACAGCUUGGCAAAGUGGCUGUCGCUAGACUGCC [G2A G7A G19U G35C] here?
The self-cleavage was 0.13.

For GGCAGAGCUCCACUGAGCGUGGCAAAGUGGCUGUGACUAGACUGCC [A11C A14U C15G G36A], which self-cleavage is on record?
Its self-cleavage is 0.

Which self-cleavage does the source give for GGCAGAGCGCAACACAGCGUGGCAAAGUGGCUGUGGCUAGAGUGCA [U9G C42G C46A] here?
The self-cleavage was 0.2.

For GGCAGAGCUCUACAAAGCGUGGCAGAGUGGCUGUGGCUCGACUGCC [A11U C15A A25G A39C], which self-cleavage is on record?
Its self-cleavage is 0.01.

Which self-cleavage does the source give for GGCAGCGCUCAACACAGCGAGACAUAGUGGCUGUGGCUAGACUGCC [A6C U20A G22A A25U] here?
Its self-cleavage is 0.63.

For GGCGGCGCUCAACACAGCGUGGCAAAGUUGCUGUGGUUAGACUGCC [A4G A6C G29U C37U], which self-cleavage is on record?
Its self-cleavage is 0.11.

For GGCAGAGCUCAACACAGCGUGGCAAAGUAGCUGUGGCUAAACUGCA [G29A G40A C46A], which self-cleavage is on record?
Its self-cleavage is 0.1.

With GGCAGAGGUCAAUACAGCGUGGCAAAGUGGCUGUGGCUAAACUGCC [C8G C13U G40A] as the variant, how does the self-cleavage read?
Its self-cleavage is 0.02.

For GGUUGAGCUCAACACAGCGUCGCAAAGUGGCUGUGGCUAGACUGCC [C3U A4U G21C], which self-cleavage is on record?
Its self-cleavage is 0.07.

With GGCAGAGCUCAACACAGCGUUGCAAAGUGUCUGUGGCCAAACUGCC [G21U G30U U38C G40A] as the variant, how does the self-cleavage read?
Its self-cleavage is 0.09.

With GGCCGAGCUCACCACAGCGUGGCAACGUGGCUGUGGCUAGACUGCC [A4C A12C A26C] as the variant, how does the self-cleavage read?
Its self-cleavage is 0.02.

With GGAACUGCUCAACACAGCGUGGCAAAGUGGCUGUGGCUAGACUGCA [C3A G5C A6U C46A] as the variant, how does the self-cleavage read?
Its self-cleavage is 0.18.

Which self-cleavage does the source give for GGAAGAGCUCAACACAGCGUGGCAAAGUGACUGUGGUUAGACUACC [C3A G30A C37U G44A] here?
Its self-cleavage is 0.14.

Which self-cleavage does the source give for GGCAGAGCUCAACACAGCGUGGCAAAGUGACUGGAGCUAGACUGCC [G30A U34G G35A] here?
The self-cleavage was 0.

For GGCAGGGCCCAACACAGCGUGGCAAAGUGGCCGUGUCUAGACUGCC [A6G U9C U32C G36U], which self-cleavage is on record?
Its self-cleavage is 0.03.

Which self-cleavage does the source give for GGCGCAGCUCAACACAGCGUGGCAAAGAGGAUUUGGCUAGACUGCC [A4G G5C U28A C31A G33U] here?
Its self-cleavage is 0.05.

For GGCAGAGCUCAACACAGCGUGGCAAACUGGCCGUCGCUAGCCCGCC [G27C U32C G35C A41C U43C], which self-cleavage is on record?
Its self-cleavage is 0.16.

For GGCAAAGCUAAACACAGCCUGGCAAAGUGGCUGUGGCUAGAUUGCC [G5A C10A G19C C42U], which self-cleavage is on record?
Its self-cleavage is 0.03.

For GCCAGACCUCAAUCCAGAGUGGCAAAGUGGCUGUGGCUAGACUGCC [G2C G7C C13U A14C C18A], which self-cleavage is on record?
The self-cleavage was 0.01.

For GGCAGAGCUCAACACAGCGUGGGAAAAUGGCUGUAGCUAGCCUGGA [C23G G27A G35A A41C C45G C46A], which self-cleavage is on record?
Its self-cleavage is 0.07.

Which self-cleavage does the source give for GGCAGAGUUCAACAAAGCGGGGCAAAGUGGCUGUGGCUAGACAGCC [C8U C15A U20G U43A] here?
Its self-cleavage is 0.08.

With GGAAGAGCUUACCACAGCGUGGCUAAGUGGCUAUGGCUAGACUGCC [C3A C10U A12C A24U G33A] as the variant, how does the self-cleavage read?
Its self-cleavage is 0.02.

With GGCAGAGCUCAACAGAGCGUGGCAAAGUGGCUGUGCCUAGACUCCC [C15G G36C G44C] as the variant, how does the self-cleavage read?
Its self-cleavage is 0.02.

For GGCAGAGCUCAACGCAGCGUGGAAAAGUGGCUGUGGCUAGACCGCC [A14G C23A U43C], which self-cleavage is on record?
Its self-cleavage is 0.14.

With UGCAGAGCUCAACACAGCGUGGCAAAGUGGCUGGGGCUAAACUGCC [G1U U34G G40A] as the variant, how does the self-cleavage read?
The self-cleavage was 0.02.

Which self-cleavage does the source give for GGCAGAGCUCAAGACAGCGUGGCAAAGUGGCUGUGGGUCGACUGCC [C13G C37G A39C] here?
The self-cleavage was 0.05.

Which self-cleavage does the source give for UGAAGAUCUCAACACCGGGUGGCAAAUUGUUUGUAGCUAGACUGCC [G1U C3A G7U A16C C18G G27U G30U C31U G35A] here?
The self-cleavage was 0.22.

With GGCAGAGCUCAACACAGCGUGGCAAAGUGGGUGUGGCUAUACUGCU [C31G G40U C46U] as the variant, how does the self-cleavage read?
Its self-cleavage is 0.02.

Which self-cleavage does the source give for GGGAGAGCACGACCCAGAGUGGCAAAGUGGAUGUGGGUAGAUUGCC [C3G U9A A11G A14C C18A C31A C37G C42U] here?
The self-cleavage was 0.

For GGCAGCGCUCAAUACAGCGUGGCAAAGUGGGUGUGGUUAGACUGCC [A6C C13U C31G C37U], which self-cleavage is on record?
Its self-cleavage is 0.04.

For GGCAGAGCUCAACACAUCGCGGCUGAGUGGCUGUGGCUAGGCUGCC [G17U U20C A24U A25G A41G], which self-cleavage is on record?
Its self-cleavage is 0.01.

For GGCAGAGCUCAACACAGCGAGGCAAAGUGCCUGUGGCCAGACUGCC [U20A G30C U38C], which self-cleavage is on record?
Its self-cleavage is 0.16.

Which self-cleavage does the source give for GGCAGAGCUCAACACAGCGUGGCAUAGUGUCUGCGGCUAGACUGCC [A25U G30U U34C] here?
The self-cleavage was 0.05.

Which self-cleavage does the source give for GGCAGAGCUCAACACAGCGUGGCAAGGUCUCUGAGGCUGGACUGCC [A26G G29C G30U U34A A39G] here?
Its self-cleavage is 0.02.

Which self-cleavage does the source give for GGCAGAGCUCAACACCGCGUGACAAAGUGGCUGUGGCUAGACUCCC [A16C G22A G44C] here?
The self-cleavage was 0.01.

Which self-cleavage does the source give for GGCGGAGUUCAACACAGCGUGGCAAAGUGUCUGUGGUUAGAGUGCC [A4G C8U G30U C37U C42G] here?
Its self-cleavage is 0.15.

For GUCAGAGCUCAACACAGCGUGACAAAGUGGCUGUGGAUAGACUUCC [G2U G22A C37A G44U], which self-cleavage is on record?
The self-cleavage was 0.08.

With GGCAGAGCUAAGCACAGCAUGGCAAAGUGGCUGUGGCUAGACUGCC [C10A A12G G19A] as the variant, how does the self-cleavage read?
Its self-cleavage is 0.04.

Which self-cleavage does the source give for UGCAGAGCUCAACACAGCGUGGCAACAUGGAUGUGGCUAGUCUGCC [G1U A26C G27A C31A A41U] here?
Its self-cleavage is 0.06.

Which self-cleavage does the source give for GGUAGGGCUCAAGACAGCGUGGCAAAGUGGAUGUGGCUAGACUGCA [C3U A6G C13G C31A C46A] here?
Its self-cleavage is 0.05.

For GGCAGAGCUCAACACAGCGUGGCAAACAGGCUUUGGCUAGACUGCC [G27C U28A G33U], which self-cleavage is on record?
The self-cleavage was 0.14.

With GGAAGAGCUCAACACACCGUGGCAAAGUGGCUGUGGCUAGACUACC [C3A G17C G44A] as the variant, how does the self-cleavage read?
The self-cleavage was 0.11.

Which self-cleavage does the source give for GGCAGCGCCCAACCCAGCGUGGCAAAGUGGCUGUGGCUAGACUGCC [A6C U9C A14C] here?
Its self-cleavage is 0.03.

With CGCAGAGCUCAACACAGCGUAGCAAAGUGGCUGUGGCUAGAUUGCC [G1C G21A C42U] as the variant, how does the self-cleavage read?
The self-cleavage was 0.

Which self-cleavage does the source give for GGCAGAGCUCACCACAGCGUGGCAAAGUGGCUGUAGCUAGACUUCC [A12C G35A G44U] here?
The self-cleavage was 0.01.

For GGCAAAGUUCAACAUAACGUGGCAAAGUGGCUGUGGCUAGACUGCC [G5A C8U C15U G17A], which self-cleavage is on record?
The self-cleavage was 0.55.

With GGGAGAGCUCAACACCGCGUGGCAAAGUAGCUGUGGCUAGACUGCC [C3G A16C G29A] as the variant, how does the self-cleavage read?
Its self-cleavage is 0.25.

Which self-cleavage does the source give for GGCAGAGCUCAACACAGUGUGGCAAAGUGGCUUUGGCUAAACUGCC [C18U G33U G40A] here?
The self-cleavage was 0.

For GUCACUUCUCAAAACAGCCUGACAAAGUGGCUGUGGCUAGACUCCC [G2U G5C A6U G7U C13A G19C G22A G44C], which self-cleavage is on record?
Its self-cleavage is 0.1.

With GGCAGAGCUCAACACUGCCUGGCAAAGUGGCAGUGGCGAGACUACC [A16U G19C U32A U38G G44A] as the variant, how does the self-cleavage read?
The self-cleavage was 0.
